Data reported in the supplement of paper PMC12067230.
The data scatter; read single values as rough.

experiment: amyloid nucleation score relative to library mode (yeast Sup35 reporter selection) (log enrichment difference); higher = more amyloid nucleation; sequences are the first 22 residues of the Bri2 peptide extended by up to 12 random residues; settings: random library (experiment): 1;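 active = nucleation score significantly above 0 at FDR 0.05; inactive = not significantly above 0 or absent from output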
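Note: [psi-pin-] Saccharomyces cerevisiae expressing SupN fusions, induced by 100 µM Cu2SO4, selected 7 d at 30 °C without adenine and uracil, scored by deep sequencing of output versus input.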

Sequence | amyloid nucleation score
EASNCFAIRHFENKFAVETLICFCLSKFSSGDTC | 5.45
EASNCFAIRHFENKFAVETLICFCLVTLLLDVVQ | inactive
EASNCFAIRHFENKFAVETLICFCMCRIYNCTCA | 2.54
EASNCFAIRHFENKFAVETLICFCMDRHERFMYG | 3.21
EASNCFAIRHFENKFAVETLICFCNRMMLRRRWG | inactive
EASNCFAIRHFENKFAVETLICFCPISVFLYTSR | 5.9
EASNCFAIRHFENKFAVETLICFCRRHELGPGCR | 6.96
EASNCFAIRHFENKFAVETLICFCRYAQEDRGFF | 2.75
EASNCFAIRHFENKFAVETLICFCRYSDEVHWGA | 2.48
EASNCFAIRHFENKFAVETLICFCSLYVAHAV | inactive
EASNCFAIRHFENKFAVETLICFCTGEIASRSLR | 5.33
EASNCFAIRHFENKFAVETLICFCVFRLKQCERR | inactive
EASNCFAIRHFENKFAVETLICFCVGHSWVAVFG | inactive
EASNCFAIRHFENKFAVETLICFCVITTDVKIDL | inactive
EASNCFAIRHFENKFAVETLICFCVLGDRLRPAV | 2.96
EASNCFAIRHFENKFAVETLICFCWDRMLLITSK | inactive
EASNCFAIRHFENKFAVETLICFCYRTGRRTDPR | 3.05
EASNCFAIRHFENKFAVETLICFD | -0.101
EASNCFAIRHFENKFAVETLICFDDSSPSEDGVA | inactive
EASNCFAIRHFENKFAVETLICFDELQFLGKAVA | inactive
EASNCFAIRHFENKFAVETLICFDESI | inactive
EASNCFAIRHFENKFAVETLICFDEVGLAECWRR | 3.66
EASNCFAIRHFENKFAVETLICFDGHRYVGYELQ | 3.4
EASNCFAIRHFENKFAVETLICFDGNGQRTRLVR | 0.506
EASNCFAIRHFENKFAVETLICFDHRLA | inactive

Sequence | amyloid nucleation score
EASNCFAIRHFENKFAVETLICFDKGLWLMSS | inactive
EASNCFAIRHFENKFAVETLICFDLMHWQGTVRR | 4.91
EASNCFAIRHFENKFAVETLICFDMMSYCTSYAM | 0.556
EASNCFAIRHFENKFAVETLICFDQCEESAYIKP | 1.68
EASNCFAIRHFENKFAVETLICFDRHIIMGLNVD | inactive
EASNCFAIRHFENKFAVETLICFDSDNFSHACSL | 4.11
EASNCFAIRHFENKFAVETLICFDSSSYAGKVRR | 3.95
EASNCFAIRHFENKFAVETLICFEDATSKERGET | 3.71
EASNCFAIRHFENKFAVETLICFEELRSDLWRKS | inactive
EASNCFAIRHFENKFAVETLICFEFRKSFPVATL | 0.703
EASNCFAIRHFENKFAVETLICFEFVANVHLQVS | 7
EASNCFAIRHFENKFAVETLICFEGACVCVMGW | 4.39
EASNCFAIRHFENKFAVETLICFEGTAESYWIHK | 5.38
EASNCFAIRHFENKFAVETLICFEMLLVRSVPGR | inactive
EASNCFAIRHFENKFAVETLICFENVYQTSAFGL | 3.17
EASNCFAIRHFENKFAVETLICFETLSS | inactive
EASNCFAIRHFENKFAVETLICFEVIEMWHRSCG | inactive
EASNCFAIRHFENKFAVETLICFEVKWRELDRTK | -0.585
EASNCFAIRHFENKFAVETLICFEWRRLFGSRGR | 3.81
EASNCFAIRHFENKFAVETLICFF | 7.75
EASNCFAIRHFENKFAVETLICFFAHRQRSRRCD | 1.75
EASNCFAIRHFENKFAVETLICFFHSRTC | 0
EASNCFAIRHFENKFAVETLICFFLFHGSANRDG | 3.24
EASNCFAIRHFENKFAVETLICFFLRVYHTTRVS | inactive
EASNCFAIRHFENKFAVETLICFFMMAYARNKVA | inactive

same assay, conditions: random library (experiment): 2

Sequence | amyloid nucleation score
EASNCFAIRHFENKFAVETLICFCNNVAI | 7.64
EASNCFAIRHFENKFAVETLICFCPWGSVRMGRG | 8.88
EASNCFAIRHFENKFAVETLICFCR | inactive
EASNCFAIRHFENKFAVETLICFCRCLMYGCSHL | inactive
EASNCFAIRHFENKFAVETLICFCSCSSHIKSDF | 7.81
EASNCFAIRHFENKFAVETLICFCSLYYMMPATN | inactive
EASNCFAIRHFENKFAVETLICFCVFFSELLGFC | inactive
EASNCFAIRHFENKFAVETLICFCVSLFNVGMIS | inactive
EASNCFAIRHFENKFAVETLICFCVYYIVIVYWA | inactive
EASNCFAIRHFENKFAVETLICFCWDNQLCESKG | inactive
EASNCFAIRHFENKFAVETLICFDCRDHLEFILS | 7.78
EASNCFAIRHFENKFAVETLICFDEVVCSYVNPS | inactive
EASNCFAIRHFENKFAVETLICFDFCSTYRHIVC | 4.26
EASNCFAIRHFENKFAVETLICFDIKCCLGSMWC | 9.19
EASNCFAIRHFENKFAVETLICFDIYIYAITGIW | inactive
EASNCFAIRHFENKFAVETLICFDLVESGRSSVY | inactive
EASNCFAIRHFENKFAVETLICFDMWSITRCLVF | inactive
EASNCFAIRHFENKFAVETLICFDNYENVRMSWI | -0.207
EASNCFAIRHFENKFAVETLICFDRMFV | inactive
EASNCFAIRHFENKFAVETLICFDSMVPLRKVGK | 3.98
EASNCFAIRHFENKFAVETLICFDVFCS | 6.21
EASNCFAIRHFENKFAVETLICFDYTLLLRMGRR | inactive

Sequence | amyloid nucleation score
EASNCFAIRHFENKFAVETLICFEAECTDKVIHT | inactive
EASNCFAIRHFENKFAVETLICFEGCMKGDVSIG | 4.71
EASNCFAIRHFENKFAVETLICFEKMRTFTDEHD | 1.58
EASNCFAIRHFENKFAVETLICFELHLALVQGPA | inactive
EASNCFAIRHFENKFAVETLICFEM | 4.46
EASNCFAIRHFENKFAVETLICFENEHYHSVLPF | inactive
EASNCFAIRHFENKFAVETLICFEQWQ | 1.29
EASNCFAIRHFENKFAVETLICFETGTKAVKSDD | 0.205
EASNCFAIRHFENKFAVETLICFEVNL | 8.49
EASNCFAIRHFENKFAVETLICFFANISPGETIT | 8.34
EASNCFAIRHFENKFAVETLICFFATITLTSFLE | inactive
EASNCFAIRHFENKFAVETLICFFESYTMPVGGA | inactive
EASNCFAIRHFENKFAVETLICFFEYRIS | inactive
EASNCFAIRHFENKFAVETLICFFFGYEAAFWDW | inactive
EASNCFAIRHFENKFAVETLICFFFSGWE | 7.42
EASNCFAIRHFENKFAVETLICFFGN | 8.6
EASNCFAIRHFENKFAVETLICFFIFFGGYHLAV | inactive
EASNCFAIRHFENKFAVETLICFFISINLSCSVW | inactive
EASNCFAIRHFENKFAVETLICFFIWGSGSVSMG | -0.00995
EASNCFAIRHFENKFAVETLICFFLFHSPVVMI | inactive
EASNCFAIRHFENKFAVETLICFFLWYCMIVKST | inactive
EASNCFAIRHFENKFAVETLICFFMQR | 6.2

same assay, conditions: random library (experiment): 3

Sequence | amyloid nucleation score
EASNCFAIRHFENKFAVETLICFCLSRSGLWREG | 4.83
EASNCFAIRHFENKFAVETLICFCNNRVVCRVVD | inactive
EASNCFAIRHFENKFAVETLICFCRNPKLLGRVW | inactive
EASNCFAIRHFENKFAVETLICFCRRLARTTANV | inactive
EASNCFAIRHFENKFAVETLICFCRVWRTPKLMM | inactive
EASNCFAIRHFENKFAVETLICFCSP | 6.72
EASNCFAIRHFENKFAVETLICFCV | 7.18
EASNCFAIRHFENKFAVETLICFCVRHYAVCVTM | inactive
EASNCFAIRHFENKFAVETLICFDATIIGMSNDG | 8.44
EASNCFAIRHFENKFAVETLICFDGLGV | inactive
EASNCFAIRHFENKFAVETLICFDIKRSLLISSR | inactive
EASNCFAIRHFENKFAVETLICFDKWIDIRGNRT | 4.73
EASNCFAIRHFENKFAVETLICFDKWYIRFNDSW | inactive
EASNCFAIRHFENKFAVETLICFDLSTIFDVRRL | 7.57
EASNCFAIRHFENKFAVETLICFDMAVWKEEWVM | inactive
EASNCFAIRHFENKFAVETLICFDPSTSATEPEG | inactive
EASNCFAIRHFENKFAVETLICFDTGHVGDELWR | 1.76
EASNCFAIRHFENKFAVETLICFEAPNRTSYVRL | 3.89
EASNCFAIRHFENKFAVETLICFECLGLLRNKSC | inactive
EASNCFAIRHFENKFAVETLICFEELPKVQAVWS | inactive
EASNCFAIRHFENKFAVETLICFEGQVTSAPATR | inactive
EASNCFAIRHFENKFAVETLICFEMFKSVSHQ | 3.4
EASNCFAIRHFENKFAVETLICFEMRRFKLYVLA | inactive
EASNCFAIRHFENKFAVETLICFFCCS | 8.95
EASNCFAIRHFENKFAVETLICFFDLACYVYIEG | inactive
EASNCFAIRHFENKFAVETLICFFHQASRECVVS | inactive
